# Hit rate of the full screen: of about 310,000 compounds, about 2,200 (0.71%) showed an effect of 50% or more. Effects have a minus sign here. Some of the results follow.
# Molecular target: human ether-à-go-go-related gene (hERG) potassium channel (human, UniProt Q12809)
# Assay: primary screen, population patch clamp on CHO cells stably expressing hERG
# human ether-à-go-go-related gene (hERG) potassium channel, sequence (Q12809 whole entry, looked up): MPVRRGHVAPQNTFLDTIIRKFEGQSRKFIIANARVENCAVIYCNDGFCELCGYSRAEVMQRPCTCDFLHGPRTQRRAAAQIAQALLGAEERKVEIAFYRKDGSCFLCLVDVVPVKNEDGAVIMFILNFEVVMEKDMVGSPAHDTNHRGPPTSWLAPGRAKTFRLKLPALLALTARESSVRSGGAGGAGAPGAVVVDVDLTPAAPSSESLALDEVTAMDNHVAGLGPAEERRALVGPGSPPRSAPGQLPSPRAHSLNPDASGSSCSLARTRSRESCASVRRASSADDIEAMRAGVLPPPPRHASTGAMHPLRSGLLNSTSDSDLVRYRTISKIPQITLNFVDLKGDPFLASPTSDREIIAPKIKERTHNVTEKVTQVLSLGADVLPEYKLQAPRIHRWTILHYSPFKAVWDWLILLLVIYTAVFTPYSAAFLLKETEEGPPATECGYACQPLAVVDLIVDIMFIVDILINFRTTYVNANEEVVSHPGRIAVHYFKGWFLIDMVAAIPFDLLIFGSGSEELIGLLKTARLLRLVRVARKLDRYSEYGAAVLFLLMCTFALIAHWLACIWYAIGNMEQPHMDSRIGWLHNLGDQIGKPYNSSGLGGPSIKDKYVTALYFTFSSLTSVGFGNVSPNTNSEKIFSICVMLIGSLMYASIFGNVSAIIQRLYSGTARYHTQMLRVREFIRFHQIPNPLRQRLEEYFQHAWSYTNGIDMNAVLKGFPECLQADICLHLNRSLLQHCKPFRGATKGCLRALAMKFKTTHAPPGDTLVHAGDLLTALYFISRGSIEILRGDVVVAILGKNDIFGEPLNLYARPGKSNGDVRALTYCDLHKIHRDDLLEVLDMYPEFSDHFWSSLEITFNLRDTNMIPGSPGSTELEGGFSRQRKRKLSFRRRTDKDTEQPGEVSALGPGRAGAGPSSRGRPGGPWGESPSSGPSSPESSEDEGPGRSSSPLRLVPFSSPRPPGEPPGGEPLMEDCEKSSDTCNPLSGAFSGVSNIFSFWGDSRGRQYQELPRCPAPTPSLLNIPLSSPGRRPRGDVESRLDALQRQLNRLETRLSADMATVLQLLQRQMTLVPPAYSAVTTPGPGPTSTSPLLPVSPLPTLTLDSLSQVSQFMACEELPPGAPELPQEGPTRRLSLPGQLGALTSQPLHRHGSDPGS
row,SMILES,"hERG current change (%, negative = inhibition) at 1uM [%]"
1,CN(C1CCCCC1)S(=O)(=O)c1ccc(C(=O)O)cc1,0.593
2,Cc1cc(NC(=O)c2ccc3c(c2)OCCO3)ccc1NC(=O)c1cc2ccccc2o1,9.88
3,Cc1noc(C)c1COC(=O)[C@H](C)NS(=O)(=O)c1ccc(Cl)c(Cl)c1,2.96
4,Cc1ccc(C(=O)/C=C/Nc2ccccc2C(N)=O)cc1,19.7
5,O=C(NN=C1CCCC1)C(=O)Nc1cccc(C(F)(F)F)c1,7.53
6,CC(C)c1noc2ncc(C(=O)c3cc(Cl)cc(Cl)c3O)cc12,19.3
7,CC1CCCC(C)N1/N=C/c1ccc(O)cc1 (centres unmarked),8.15
8,COC(=O)C1=C(c2ccc(OC(F)(F)F)cc2)C[C@@H]2CC[C@H]1N2C(=O)NCc1cccc2ccccc12,14.1
9,COc1ccc(N(Cc2ccccc2)N=O)cc1,7.99
10,CSCC[C@H](NC(=O)c1ccco1)c1nnc2ccccn12,13
11,COc1ccc(C(=O)NCC(=O)c2ccccc2)cc1,13.4
12,CCC1CCCCN1S(=O)(=O)c1ccc(NC(=O)C2CCCO2)cc1 (centres unmarked),13.2
13,CCN(C(=O)CSc1nnc(-c2ccccc2Br)o1)C1CCS(=O)(=O)C1 (centres unmarked),3.66
14,Cc1ccsc1C(=O)N(C)C1CCS(=O)(=O)C1 (centres unmarked),9.2
15,Cc1ccc(-c2nnc(SCC(=O)N/N=C/c3ccc(C(=O)O)cc3)n2C2CCCCC2)cc1,16
16,C/C(=N\OCc1nc2ccccc2c(=O)n1/N=C/c1cc([N+](=O)[O-])ccc1O)c1ccccc1,12.1
17,CCCc1nnc(NC(=O)CC(C)c2ccccc2)s1 (centres unmarked),12.6
18,Cc1nc(-c2ccncc2)nc(NCCNc2ncccc2C(F)(F)F)c1Cl,10.2
19,Cc1cc(N2C(=O)C(O)=C(C(=O)c3cccs3)C2c2ccccc2)no1 (centres unmarked),-8.24

row,SMILES,"hERG current change (%, negative = inhibition) at 1uM [%]"
1,CN(C(=O)Cn1c(=O)oc2cc(S(=O)(=O)N3CCCC3)ccc21)C1CCCCC1,36
2,COc1cc(/C=C2\SC(=O)NC2=O)ccc1OCc1ccc(Cl)nc1,18.7
3,CCOC(=O)c1nc(N)c(=O)n(-c2ccc(C)cc2)n1,15.7
4,CN(C)S(=O)(=O)c1ccc(NC(=O)c2c(F)cccc2Cl)cc1,14.3
5,CCN(CC)C(=O)CSc1ncnc2c(-c3cccs3)nsc12,12.4
6,CS(=O)(=O)N1CCCC(C(=O)Nc2ccc(F)c(F)c2)C1 (centres unmarked),12.5
7,Cc1ccc(C(=O)N/C(=C\c2ccccc2)C(=O)NCc2ccncc2)cc1,-77.1
8,COc1cc(S(=O)(=O)Nc2cc(C)cc(C)c2)ccc1F,12.9
9,Cc1ccc(C)c2[nH]c(=O)c(CN(CCN3CCOCC3)Cc3nnnn3CC3CCCO3)cc12 (centres unmarked),8.29
10,O=c1oc(Nc2cccc(F)c2)nc2ccccc12,7.95
11,CCn1c(CNC(=O)COc2ccc(C(C)C)cc2)nnc1SCC(=O)Nc1ccccc1C(C)C,-12.8
12,CCOc1ccc(C(=O)Nc2ccc(S(=O)(=O)Nc3nccc(C)n3)cc2)cc1OCC,-5.8
13,CC(C)CCN1CCN(CC(c2ccccc2)c2ccccc2)CC1CCO (centres unmarked),-81.9
14,O=C(NCc1cccnc1)C(=O)NCC1OCCCN1S(=O)(=O)c1ccccc1 (centres unmarked),20.4
15,O=c1sc(Nc2ccccc2)nc2ccsc12,7.66
16,COc1ccc(-n2c(C)cc(C(=O)COc3ccc(C)nc3[N+](=O)[O-])c2C)cc1,1.53
17,Cc1cccnc1-n1c(CCN2C(=O)c3ccccc3C2=O)nc2ccccc2c1=O,9.68
18,O=C1c2ccccc2C(=O)N1c1cccnc1,1.09
19,COC(=O)c1ccc(NC(=S)N2CCN(C(=O)c3ccco3)CC2)cc1,0.451

row,SMILES,"hERG current change (%, negative = inhibition) at 1uM [%]"
1,COc1cccc(CN(C)C(=O)c2sccc2-c2ccccc2)c1OC,12.5
2,O=C(COc1ccccc1)Nc1c2c(nn1-c1ccccc1)CS(=O)C2 (centres unmarked),5.72
3,CC(=O)c1cc2c(cc1NC(=O)c1ccco1)OCCO2,11.2
4,COc1ccc(C2=NO[C@@H]3[C@@H]4C[C@@H]([C@H]5C(=O)N(C)C(=O)[C@@H]45)[C@H]23)cc1,2.03
5,Cc1cc(NC(=O)CSc2nc(C3CC3)nc3sc4c(c23)CCC(C)C4)no1 (centres unmarked),17.1
6,CN1CCN(CCCNC(=O)c2ccc(/C=C3\Oc4ccccc4N(Cc4ccccc4F)C3=O)cc2)CC1,10.7
7,O=C1NC(=O)/C(=C/c2ccco2)N1,10
8,Fc1cccc2sc(Nc3nc4c(F)cccc4s3)nc12,3.7
9,COC(=O)c1ccc(OCc2nn[nH]n2)cc1,12.5
10,Cc1ccc(S(=O)(=O)N2CCC(C(=O)N3CCC4(CC3)OCCO4)CC2)cc1,6.92
11,COc1ccc(CCN(Cc2ccccn2)C(=S)Nc2ccccc2F)cc1OC,0.501
12,COc1ccc(-c2noc(CN3CCN(c4ccccc4F)CC3)n2)cc1OC,12.8
13,C=CCN(CC=C)C(=O)CN1C(=O)c2ccccc2C1=O,12.3
14,COc1ccc(N2CCN(C(=O)COc3ccc4c(C)c(C)c(=O)oc4c3C)CC2)cc1,12.2
15,O=c1oc2ccccc2c(Nc2ccc3ncccc3c2)c1[N+](=O)[O-],1.67
16,CN(C)C=Nc1ncc2c([nH]c3ccccc32)c1C#N,7.87
17,Cc1cc(C)c(C#N)c(SCc2ccc(C#N)cc2)n1,7.48
18,CN(CC(=O)NCCc1ccc(F)cc1)Cc1cccs1,7.54
